Measurements reported in PubChem BioAssay AID588855 (National Center for Advancing Translational Sciences (NCATS), 2011).
In all, about 410,000 compounds went through this assay and about 5,000 (1.2%) were called active. The shares of active, inactive and inconclusive entries below differ from those in the screen. Calls follow the shape of the dose curve; as a rule, active = well fitted inhibition curve with a large enough effect; inconclusive = small, poorly fitted or top-dose-only effect; inactive = no such curve, though single readings can be large or run the other way. Potencies of inconclusive entries are doubtful fits and often do not repeat.

Assay: qHTS for Inhibitors of TGF-b; also: nearly all actives have a fitted effect of over 65% in size
Conditions: HepG2 CAGA-GFP TGF-b/SMAD3 reporter, GFP fluorescence, 18 h, TGF-beta stimulated, 500 pg/mL final; series mostly up to 46.1 µM; activity, negative = inhibition: at the top concentration
Summary of the method: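 TGF-beta reporter screen: HEPG2 CAGA-GFP, 1% FBS, 500 pg/mL TGF-beta final, 18 h; per-cell GFP summed per well; curves fitted and categorized by class.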
% is scaled to controls: 0 for no effect and ±100 for the full control effect; potency is read from the fitted curve at half-maximal effect; tags tell the direction and shape of the fitted curve.

Compound	Potency	activity, negative = inhibition
CC1Sc2ccc(S(=O)(=O)CCC(=O)NC3CCCC(C)C3C)cc2NC1=O (configuration not stated)	inconclusive: 22.4 µM [inhibitor, single point]	
CCOC(=O)c1ccc(NC(=O)CCn2c(=O)oc3ccccc32)cc1	inconclusive: 0.1 µM [inhibitor, full curve, poor fit]	
COCCN(C(=O)CCC(=O)Nc1cc(C)on1)C(C(=O)NC1CCCC1)c1ccccc1C (configuration not stated)		inactive: 1.34%
Cc1ccccc1S(=O)(=O)Oc1ccc2ccc(O)cc2c1	inconclusive: 20 µM [inhibitor, partial curve, poor fit]	
Cc1nc2c3cc(F)ccc3n(Cc3ccccc3F)c2s1		inactive: 0%
Cc1ccc(S(=O)(=O)c2c(N)n(CCCN(C)C)c3nc4ccccc4nc23)cc1	inconclusive: 35.5 µM [inhibitor, single point]	
O=C(NC1CC2CCCC(C1)N2Cc1ccc(F)cc1)c1ccc(F)cc1 (configuration not stated)		inactive: 8.5%
Cc1ccc(C)c(-c2ccc(=O)n(Cc3ccc(F)cc3Cl)n2)c1	active: 12.6 µM	
CCOc1ccc(CC(=O)NNC(=O)/C=C/C(=O)O)cc1		inactive: -12.3%
CCOC(=O)C1CCCN(C(=O)Cn2ncc3c4ccccc4n(Cc4ccc(F)cc4)c3c2=O)C1 (configuration not stated)	inconclusive: 14.1 µM [inhibitor, single point]	
O=C(O)CCCN1C(=O)c2ccc(C(=O)c3cccc([N+](=O)[O-])c3)cc2C1=O		inactive: 2.78%
c1ccc(Nc2nc(N3CCOCC3)nc(N3CCOCC3)n2)cc1		inactive: 61.8%
Cc1cc(C)cc(NC2=NCC(=O)N2Cc2ccccc2)c1		inactive: -0.0941%
O=C(Nc1ccc(Cl)cc1)c1cc(Br)ccc1OCC(=O)N1CCOCC1		inactive: -21.7%
CC1CCN(S(=O)(=O)CCNC(=O)c2ccc(F)cc2)CC1		inactive: 1.82%
Cc1ccc(NC(=O)c2ccc3ccccc3n2)cc1S(=O)(=O)N(C)C		inactive: 11.1%
CC1CN(CC(O)COC(c2ccc(Cl)cc2)c2ccc(Cl)cc2)CC(C)O1 (configuration not stated)	inconclusive: 35.5 µM [inhibitor, partial curve, poor fit]	
Cc1ccccc1-n1c(SCc2csc(Nc3ccccc3)n2)nnc1-c1cccnc1	inconclusive: 35.5 µM [inhibitor, single point]	
O=C(CSc1ncn[nH]1)N1N=C2/C(=C/c3ccccc3)CCCC2C1c1ccccc1 (configuration not stated)	inconclusive: 17.8 µM [inhibitor, single point]	
COC(=O)c1ccc(CNC(=O)c2nc(Cn3nc(C)c(Br)c3C)no2)cc1	inconclusive: 35.5 µM [inhibitor, single point]	
CCOC(=O)[C@@H](C)NS(=O)(=O)N(Cc1ccccc1)[C@H](C(=O)OC)C(C)C	inconclusive: 3.55 µM [inhibitor, full curve]	
CCOc1ccc(N2C(=O)CC(N(Cc3ccco3)C(C)=O)C2=O)cc1 (configuration not stated)	inconclusive: 6.31 µM [inhibitor, single point]	
CCOC(=O)c1oc2ccccc2c1NC(=O)COc1ccc(F)cc1		inactive: 8.77%
CC(=O)NCC(=O)OCC(=O)c1ccc(Br)cc1	inconclusive: 6.31 µM [inhibitor, single point]	

Compound	Potency	activity, negative = inhibition
Cc1nc(N2CCOCC2)c2c(C(=O)N(C)c3ccccc3)c(C)oc2n1		inactive: -9.14%
CC(C)(C)Cc1c(-c2ccco2)nc2ccc(Cl)cn12	inconclusive: 17.8 µM [inhibitor, single point]	
Cc1cc(C)cc(OCC(=O)N(Cc2ccc(Cl)cc2)C2CCS(=O)(=O)C2)c1 (configuration not stated)	inconclusive: 22.4 µM [inhibitor, single point]	
CCN(CC)C(=O)c1ccc(-c2cccs2)s1		inactive: -16.3%
COc1ccccc1CNC(=O)C1CCN(C2=NS(=O)(=O)C(c3ccc(C)c(C)c3)=C2C)CC1	inconclusive: 6.31 µM [inhibitor, single point]	
O=C(N/N=C/c1ccccc1)c1c(O)c2ccccc2[nH]c1=O		inactive: 1.68%
Cc1ccccc1CC1(CO)CCCN(C(=O)c2cc(-c3ccccc3)no2)C1 (configuration not stated)	inconclusive: 7.94 µM [inhibitor, partial curve, poor fit]	
NC(c1csc(NC(=O)c2cccc(OC(F)(F)F)c2)n1)c1ccccc1Cl (configuration not stated)	active: 11.2 µM	
C=CC(=O)N1C/C(=C/c2ccc(Cl)cc2)C(=O)/C(=C\c2ccc(Cl)cc2)C1	active: 2.24 µM	
c1nc(CCO[C@H]2CCCCO2)cc2cc3c(cc12)OCO3		inactive: 10.1%
C[C@H]1CN=C(N(C)C)N1CC1CCC(C(C)(C)C)CC1 (some centres not stated)	inconclusive: 20 µM [inhibitor, single point]	
Cc1cc(N2CCN(c3ccccc3)CC2)n2cnnc2n1		inactive: -21.3%
COc1ccc(/C=C/C(=O)OCC(=O)Nc2ccc(N3CCOCC3)cc2)cc1OC		inactive: -3.56%
Oc1ccc2ccccc2c1CNc1ccc(Br)cc1	inconclusive: 25.1 µM [inhibitor, single point]	
CC(C)Nc1ccc(Nc2ccnc3cc4ccccc4cc23)cc1	inconclusive: 14.1 µM [inhibitor, partial curve, poor fit]	
CC(Oc1ccc(-c2ccccc2)cc1)C(=O)N/N=C/c1cccnc1 (configuration not stated)		inactive: -5.85%
Cc1ccc(C(=O)N/C(=C\c2cccs2)C(=O)NCCc2c[nH]c3ccccc23)cc1	inconclusive: 11.2 µM [inhibitor, single point]	
CC1CN(S(=O)(=O)c2ccc(C(=O)N3CCc4ccccc43)cc2)CC(C)O1 (configuration not stated)	inconclusive: 3.16 µM [inhibitor, single point]	
O=C(O)/C(=C\c1cccc(O)c1)c1ccc(S(=O)(=O)N2CCCC2)s1		inactive: 19.3%
Fc1ccc(CNC(=S)Nc2ccc(OC(F)F)cc2)cc1	inconclusive: 15.8 µM [inhibitor, partial curve, poor fit]	
Cc1ccc(C(C)C)c(OCc2ccc(C(=O)N/N=C/c3ccc(O)c(O)c3)cc2)c1	inconclusive: 35.5 µM [inhibitor, single point]	
CN(C)CCN(C(=O)C1=COCCO1)c1nc2ccc(F)cc2s1		inactive: 1.18%
Cn1nc(-c2ccccc2F)c2cc(C(=O)N3CCN(C(=O)c4ccco4)CC3)sc21	inconclusive: 12.6 µM [inhibitor, single point]	
C[C@H](CO)N1C[C@H](C)[C@@H](CN(C)CC2CCCCC2)Oc2c(NC(=O)C3CC3)cccc2C1=O	inconclusive: 35.5 µM [inhibitor, single point]	

Compound	Potency	activity, negative = inhibition
CCCCn1c(NCc2cc(C)ccc2O)nc2ccccc21	inconclusive: 35.5 µM [inhibitor, single point]	
COc1ccc(Oc2c(Cl)cnn(-c3ccc(C)cc3)c2=O)cc1	inconclusive: 28.2 µM [inhibitor, single point]	
Cc1sc(NC(=O)c2ccco2)c(CN2CCCCC2)c1C		inactive: -17.1%
CC(C)N1CCc2c(sc(NC(=O)c3ccc(S(=O)(=O)N(C)C4CCCCC4)cc3)c2C(N)=O)C1	inconclusive: 35.5 µM [inhibitor, single point]	
O=C(NC1CCCCC1)C(c1cccnc1)N(C(=O)CCl)c1ccc(F)cc1 (configuration not stated)	inconclusive: 15.8 µM [inhibitor, partial curve, poor fit]	
NC(c1ccccc1)c1csc(Nc2ccc(C(F)(F)F)cn2)n1 (configuration not stated)	inconclusive: 25.1 µM [inhibitor, single point]	
CN(CC(=O)Nc1ccc(S(=O)(=O)N2CCCC2)cc1)Cc1ccc(Cl)cc1Cl	inconclusive: 3.55 µM [inhibitor, single point]	
CC(=O)Nc1ccc(-n2c(=O)c3ccccc3c3ccccc3c2=O)cc1	inconclusive: 22.4 µM [inhibitor, single point]	
CCCCN=Cc1c(C)[nH]n(-c2ccccc2)c1=S	inconclusive: 35.5 µM [inhibitor, single point]	
O=C(C=Cc1ccccc1)Nc1ccccc1		inactive: 12.3%
CCc1sc(C(=O)NCCc2ccc(S(N)(=O)=O)cc2)cc1C		inactive: 2.33%
Cc1ccc(NS(=O)(=O)c2cccc(C(=O)NCC(c3ccco3)N3CCCCC3)c2)cc1 (configuration not stated)	inconclusive: 35.5 µM [inhibitor, single point]	
COc1ccccc1C=NC(CO)C(O)c1ccc([N+](=O)[O-])cc1 (configuration not stated)	inconclusive: 6.31 µM [inhibitor, single point]	
CCOc1ccccc1Nc1nc(-c2sc(NC(=O)c3ccco3)nc2C)cs1		inactive: -11.5%
c1ccc(-c2noc(CN3CCN(C(c4ccccc4)c4ccccc4)CC3)n2)cc1		inactive: -1.21%
C#CCOCCOCCOCCNc1nc(N2CCOCC2)nc(N2CCN(C(=O)CCCCCCCCCCNC(=O)[C@@H]([C@H](C)CC)n3cc(CCCCCN)nn3)CC2)n1	inconclusive: 22.4 µM [inhibitor, single point]	
CCc1nc2ccc(C(=O)NCCc3ccccn3)cn2c1N(C)Cc1cccs1		inactive: -1.32%
COCCOC(=O)C1=C(C)N(Cc2ccccc2)C(=O)NC1c1ccc(OC)cc1 (configuration not stated)		inactive: 12.5%
COc1ccc(-c2ccc(C(=O)NCCc3ccccc3)c3occc23)c(C)c1		inactive: -26.7%
O=C(c1cc([N+](=O)[O-])cc([N+](=O)[O-])c1)N(Cc1nnc(-c2ccccc2Cl)o1)C1CC1	inconclusive: 22.4 µM [inhibitor, single point]	
Cc1ccc(SCC(=O)NC2CC3CCC(C2)N3C)cc1 (configuration not stated)		inactive: -3.79%
COc1ccc2c(c1)CCN=C2Cc1ccc(OC)c(OC)c1	inconclusive: 35.5 µM [inhibitor, single point]	
COc1cccc(-c2cn3c(n2)sc2cc(C(=O)NCc4ccccc4F)ccc23)c1	inconclusive: 7.08 µM [inhibitor, partial curve]	
Cc1ccc(C)c(N2CCN(C(=O)CCNS(=O)(=O)c3ccc4c(c3)oc(=O)n4C)CC2)c1		inactive: -5.28%
